Assay results: PubChem BioAssay AID360 (National Center for Advancing Translational Sciences (NCATS), 2006)
Hit rate of the full screen: of about 48,000 compounds, about 550 (1.1%) were called active. Another 4% or so got no clear call; they are omitted. No stated cut-off is given here; in the data, active means potency below about 15 µM; inconclusive means mostly about 16 µM to 33 µM; inactive means weaker than that. Some of the results follow.

target: Lysosomal acid glucosylceramidase (Homo sapiens) (UniProt P04062); assay: Glucocerebrosidase; conditions: purified enzyme, resorufin glucoside fluorescence (screen aimed at inhibitors), 20 min;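 further: the screen sought inhibitors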
In short: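 Compounds titrated against 0.2 nM normal enzyme, 30 uM resorufin beta-D-glucopyranoside substrate, citrate/phosphate buffer with taurocholate and tween-20, pH 5.9. Reaction ran 20 min at room temperature; fluorescence (Ex 548/Em 600) gave AC50.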
Potency means the concentration at half of the fitted maximal effect.

Chain of UniProt P04062 (P04062 whole entry, looked up): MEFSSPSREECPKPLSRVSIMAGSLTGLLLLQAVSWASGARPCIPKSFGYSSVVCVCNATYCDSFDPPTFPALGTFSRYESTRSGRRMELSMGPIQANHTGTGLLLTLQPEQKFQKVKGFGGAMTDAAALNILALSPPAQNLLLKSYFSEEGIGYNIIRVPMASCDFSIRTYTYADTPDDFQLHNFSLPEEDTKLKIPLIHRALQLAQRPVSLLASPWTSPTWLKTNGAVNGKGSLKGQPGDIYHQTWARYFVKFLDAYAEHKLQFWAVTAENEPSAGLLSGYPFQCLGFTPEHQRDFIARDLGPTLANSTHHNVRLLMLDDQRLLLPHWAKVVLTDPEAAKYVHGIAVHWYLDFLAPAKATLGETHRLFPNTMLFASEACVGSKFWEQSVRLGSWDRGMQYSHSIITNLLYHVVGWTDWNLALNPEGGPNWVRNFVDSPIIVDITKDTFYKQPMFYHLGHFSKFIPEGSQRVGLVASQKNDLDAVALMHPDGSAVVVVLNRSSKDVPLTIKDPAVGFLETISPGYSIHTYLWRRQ

Potency, inactive:
O=C(Cn1cnc2c(cnn2-c2ccccc2)c1=O)OCc1ccccc1 > 76.9 µM, COc1ccc2[nH]c(C(=O)O)c(CCNC(C)=O)c2c1 > 76.9 µM, CCOc1ccc2[nH]c(=O)c(CN(CC3CCCN3CC)C(=O)NCc3ccccc3)cc2c1 (centres undefined) > 76.9 µM, COC(=O)c1cc(NC(=O)Cn2c(=O)cnc3ccccc32)cc(C(=O)OC)c1 > 76.9 µM, O=C(NCc1cccs1)C1CCCN(S(=O)(=O)c2cccs2)C1 (centres undefined) > 76.9 µM, CCC(CCC(=O)Nc1ccn(-c2ccccc2)n1)C(=O)O (centres undefined) > 76.9 µM, CCC(=O)N1CCN(c2ccccc2NC(=O)Cc2ccccc2)CC1 > 76.9 µM, CCn1c(=O)c(C(=O)NCc2ccc(OC)cc2)c(O)c2ccccc21 > 76.9 µM, CCOC(=O)N1CCN(C(=O)c2ccc(CNS(=O)(=O)c3ccc(C)cc3)cc2)CC1 > 76.9 µM, CCn1c(=O)c2c(nc(SCC(=O)NCC3CCCO3)n2C)n(C)c1=O (centres undefined) > 76.9 µM, COc1ccc(N2CCN(CCNC(=O)c3ccc(NC(=O)C4CCCO4)cc3)CC2)cc1 (centres undefined) > 76.9 µM, CC(C)Cn1c(SCC(=O)NC(=O)Nc2ccc3c(c2)OCCO3)nc2ccccc2c1=O > 76.9 µM, COCC(C)NC(=O)c1cccc(Cl)c1 (centres undefined) > 76.9 µM, CCOC(=O)CSc1nnc([C@H](C)NC(=O)OC(C)(C)C)o1 > 76.9 µM, COc1ccc(N2CCN(C(=O)Cn3c(=O)[nH]c4ccsc4c3=O)CC2)cc1 > 76.9 µM, COc1ccc(CCNS(=O)(=O)c2cccc3nsnc23)cc1OC > 76.9 µM, O=C(CCC1COc2ccccc2O1)Nc1ccccn1 (centres undefined) > 76.9 µM, Cc1cc(NC(=O)COc2ncnc3sc(C)c(C)c23)no1 > 76.9 µM, C=CCn1c(SCC(=O)N2CCOCC2)nc2sc3c(c2c1=O)CCCC3 > 76.9 µM, O=C(NCc1cccnc1)c1ccc(S(=O)(=O)N2CCOCC2)cc1 > 76.9 µM, O=C(c1ccccc1)N1CCCCC(Sc2nnnn2-c2ccccc2)C1=O (centres undefined) > 76.9 µM, COC(=O)c1[nH]c2cccc(OC)c2c1NC(=O)CN1CCC(C(N)=O)(N2CCCCC2)CC1 > 76.9 µM, Cc1ccc2c(CC(=O)OC(C)C(=O)NCc3ccc4c(c3)OCO4)coc2c1 (centres undefined) > 76.9 µM, COc1ccc(Cl)cc1S(=O)(=O)N1CCCC(C(=O)NCC(N)=O)C1 (centres undefined) > 76.9 µM, CC(C)c1ccc(NC(=O)C(c2ccccc2)N2CCN(C=O)CC2)cc1 (centres undefined), CCOC(=O)c1c(C)[nH]c(C(=O)CN2CC(C)OC(C)C2)c1C (centres undefined), COC(=O)c1cnc2c(C(F)(F)F)cccc2c1OC > 76.9 µM, C=CCn1c(COc2cccc3cccnc23)nnc1SCC(=O)OC > 76.9 µM, CCCn1c(=N)c(C(=O)NCC2CCCO2)cc2c(=O)n3cccc(C)c3nc21 (centres undefined) > 76.9 µM, CN1C(=O)Cc2cc(S(=O)(=O)N3CCOCC3)ccc21 > 76.9 µM, CCOC(=O)c1c(C)c(C(=O)NCC2CCCO2)c(C)n1C (centres undefined) > 76.9 µM, COc1cc2c(cc1OC)C(C)N(C(=O)c1cc3n(n1)C(C(F)(F)F)CC(c1ccco1)N3)CC2 (centres undefined) > 76.9 µM, CCN(CC)CCn1c(=S)[nH]c2ccc(Cl)cc2c1=O > 76.9 µM, Cc1ccc(S(=O)(=O)NCCSc2nnc(N)s2)cc1 > 76.9 µM, CCOC(=O)C1=C(C)N(C)C(C)=C(C(=O)OCC)C1c1cccnc1 > 76.9 µM, COc1ccccc1CNc1ccc(N2CCOCC2)c(C(=O)O)c1 > 76.9 µM, Cc1ccc(OCCCCn2ccnc2)c(Cl)c1 > 76.9 µM, COc1ccc(CCNC(=O)Cn2c(=O)oc3ccccc32)cc1OC > 76.9 µM, CCC(=O)N(Cc1cc(=O)[nH]c2ccccc12)C1CCCCC1 > 76.9 µM, CC1=C(C(=O)N2CCCCCC2)C2(CCC(C)CC2)OC1=O (centres undefined) > 76.9 µM, C=CCN(C(=O)Nc1ccccc1)C1CC(=O)N(c2ccc(OC)cc2)C1=O (centres undefined) > 76.9 µM, COCCNC(=O)c1ccc(CS(=O)(=O)c2ccc(C)cc2)o1 > 76.9 µM, COc1ccccc1-c1nc(SCC(=O)O)n[nH]1 > 76.9 µM, O=C(O)Cn1c(O)c(C=Nc2ccccc2)sc1=S, Cc1ccc(C(=O)CSc2nnc(Cn3nnc4ccccc43)n2C)cc1 > 76.9 µM, CC(C)c1cc(CN2CCN(CCC#N)CC2)cc(C(C)C)c1O > 76.9 µM, Cn1nnc(NC(=O)CSc2nnnn2-c2ccc(F)cc2)n1 > 76.9 µM, CCOc1ccc2ccccc2c1C(=O)N1CCOCC1 > 76.9 µM, COC(=O)NC1CSCC1OC(=O)c1ccc(Br)cc1 (centres undefined) > 76.9 µM, N#Cc1cc(Cl)c(N2CCOCC2)cc1C#N > 76.9 µM, COCCNC(=O)c1ccc(CS(=O)(=O)c2ccccc2)o1 > 76.9 µM, CC1(C)CC(NC(=O)CCC2CCCC2)CC(C)(C)N1 > 76.9 µM, O=C(c1c(Cl)cccc1Cl)N1CCN(c2ccccn2)CC1 > 76.9 µM, CCOC(=O)c1[nH]c2ccc(OC)cc2c1NC(=O)N1CCOCC1 > 76.9 µM, CCOc1ccccc1NC(=O)NC1(C(=O)N2CCOCC2)CCCCC1 > 76.9 µM, Cc1occc1-c1nnc(SCC(=O)N2CCOCC2)n1CCc1ccccc1 > 76.9 µM, CC(C)C(c1nnnn1Cc1ccccc1)N1CCC(C(N)=O)CC1 (centres undefined) > 76.9 µM, Cc1ccc(C(C)C)cc1S(=O)(=O)NCc1cccnc1, O=C(NCc1ccco1)c1cccc(S(=O)(=O)N2CCCCC2)c1 > 76.9 µM
